From the supplement of paper PMC11417369
The other results are listed elsewhere or left out.

system: PfAP2-HC AP2 domain (GST-tagged); test: gcPBM binding intensity (ln(normalized median fluorescence intensity)); higher = stronger DNA binding
In short: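 Binding intensity is defined as the maximum Masliner-normalised natural-log median intensity across replicate spots for either probe orientation. It was measured on an Agilent 4 × 180k array of primer-extended double-stranded 36-bp intergenic genomic probes and negative controls, to which GST-tagged P. falciparum DNA-binding domains made in E. coli were applied for 1 h in 1× PBS with 1% milk, 0.2 mg/ml BSA, 0.5% salmon testes DNA and 0.03% Triton X-100. Detection was by Alexa488 anti-GST antibody and scanning at 488 nm.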

| Sequence | gcPBM binding intensity (ln) |
| --- | --- |
| TATATATATTTTAACACACACATATATATATTTATA [CACACA_site2765] | 10.1 |
| CAATAAATAATAAATACATGCAAGTATGAAGATATA [TGCATGCA_site859] | 9.84 |
| CATGTTATATATATATGTACTAAAAATATAATATAA [XGTACX_site1978] | 9.54 |
| AGTGGGATTTTTAATTGTACATAAATAATATCATAA [XGTACX_site4163] | 9.5 |
| TTTTTTTTTTTTGGTAGTACATAAATATTTTATGGA [XGTACX_site6851] | 9.32 |
| AATAAGAATTAAAAATGTACAAAAAAATGTATTTAT [XGTACX_site8005] | 9.65 |
| AAGTATAAAATATTTTGTACTTAAAAAATTATATGG [XGTACX_site2180] | 9.5 |
| AACAAATTTTTTATTAAACACACAAACATATATATA [CACACA_site8588] | 9.8 |
| GCTCATTGAAATTATACACACCAAATATATAAATAT [CACACA_site5385] | 9.64 |
| TGTGAATATATCTTTAAAAAGGATAAATAATAATTT [CACACA_negctrl_site507] | 9.5 |
| AAAAAAAAAAAGATAAATACAAGTTACACAAAAAAA [GTGCAC_negctrl_site664] | 9.64 |
| ACGTTGCGACGCAAGGTGCTTATTTTCTTATAAATA | 9.33 |
| ATATAAAATAAAAAAAAAAAAAAAAAAAAAAAAAAA [CACACA_negctrl_site1234] | 8.82 |
| TTAATGTTTGAAAGAGTGCACATAACAAAAAAAAAA [GTGCAC_site9623] | 9.81 |
| TTTTTGTATCCTTTTAATATTAAATAAAAGGAATGT [CACACA_negctrl_site1468] | 9.42 |
| TAATTAAAAAATGAATAAATGAATAAATAAATAAAT [CACACA_negctrl_site838] | 9.67 |
| TATGAATATTGCATGTGTACCTATTATCCTTTTAAA [XGTACX_site4311] | 9.65 |
| ATAATTATTTTCCCGTGTACTTATTTTTTTCAAGTA [XGTACX_site8843] | 9.71 |
| GTAAATAAATAAATAAATAAATATATATATATATAT [CACACA_negctrl_site1737] | 9.66 |

| Sequence | gcPBM binding intensity (ln) |
| --- | --- |
| AATAAAAAAAAATTCACACAAAGTTAGATTAACTAT [CACACA_site4224] | 9.61 |
| AATGATCAGATATACACACACACAAAAAAAAAAAAA [CACACA_site7806] | 10.4 |
| ATTTTTTCCAATTCTTTACCTTAGAAAGGTGTTCAA [CACACA_negctrl_site1401] | 9.44 |
| ATATATTTTTATGTAGTGCATTTAAATAATAAATGC | 9.47 |
| ATATATATATAATGAAGTACGAAAAAATAAGAAATG [XGTACX_site4001] | 9.9 |
| ATTCTAAATAAATGTACACACAAAAATAAATGTATA [CACACA_site1732] | 9.82 |
| TTTATATTTAAAAGGATGCACTACAAATTCTAAATA | 9.36 |
| TATCCTTATATTTGCACACACACACCCTAAAATGAA [CACACA_site1029] | 10.5 |
| CTACAATATCTTTAAAGTACTTTTATATAACTACCA [XGTACX_site6119] | 9.7 |
| AAGACAAATATGAAGAGTACATTTATATAAAAATTA [XGTACX_site5142] | 9.54 |
| AAAACAAACAGACACACACACATATTTATATTTATA [CACACA_site7681] | 11 |
| TTATATTAAACAAACACACACATATAAATATAAATA [CACACA_site7174] | 10.2 |
| AATATTAGGTTATGTAGTACATAACAATAATTATAC [XGTACX_site5733] | 9.9 |
| TTTTATTTTATTCAATTTTTACTTTTATAAAAATAT [GTGCAC_negctrl_site578] | 9.46 |
| ATGTATATGCAAACATGTACATATATAAACATATAT [XGTACX_site4159] | 9.8 |
| GTGTTGGGAAAAGGCATGCACTTTTTTTTTTTTTTT | 9.8 |
| ATAAAGAATATAAATACACACTTAAATATATATTAT [CACACA_site6071] | 9.83 |
| AAGGAATATGTATATACACACAGGTACATATTTATA [CACACA_site6344] | 10 |
| TAATTTTATATAAATTGTACAAAAATATTTTATTAA [XGTACX_site7166] | 9.41 |

| Sequence | gcPBM binding intensity (ln) |
| --- | --- |
| TAAAATATACAAATTTGTACATATATATGTATGTAT [XGTACX_site1127] | 9.88 |
| TGCAGGTGTTATTCACGTACGCATTTGATTAAAAAA [XGTACX_site7743] | 9.43 |
| ATTAGAAAATAAAATAATAAATAAAATAAAAAAAAA [CACACA_negctrl_site409] | 9.64 |
| ATAAAAACATAAAAATGTACATATATATATATATAT [XGTACX_site7165] | 9.9 |
| AATTCACATGTGAACTAAAAGAATATTATATATATA [CACACA_negctrl_site1632] | 9.55 |
| AAATATATATATAGTACATGCAGTAGATAATTTAAT [TGCATGCA_site299] | 10 |
| ATTAGGTATTTTTTTTGTACATATTATATAATGTGA [XGTACX_site3815] | 9.61 |
| CACAAAAATTTATACACACACATATAAAATATAGAT [CACACA_site6218] | 10.7 |
| TTCACTATACAAAGGTGTACTTAATTTTGTCCCATT [XGTACX_site7483] | 9.7 |
| AGTTATTACACACAAACATGCATTAATATCAAAAAA [TGCATGCA_site63] | 9.84 |
| TTTTTTTTTTTTTTTTGTACATAATTCCATATTTTT [XGTACX_site1789] | 9.18 |
| TGATCTTTACACATATTATATATATATAAAAAAAAA [XGTACX_negctrl_site360] | 9.52 |
| AATCTAGGTATTTATACACACTAAAATAATATACGA [CACACA_site4515] | 9.8 |
| AAAAAAAAAAGAAACACACACATATAGATTTATAAC [CACACA_site6927] | 10.9 |
| ATTTAAATAATATTCACACACAAAATTAAATTTTAA [CACACA_site6246] | 9.75 |
| AAAAAATTAACCGTAACACACACACCGATATATATA [CACACA_site9312] | 10.5 |
| GCTCTAATTAATATTTGTACACACATATTTAACCTA [XGTACX_site6808] | 10 |
| CCCTCAACGAATTTGAGTACACATTTTAAATGATAT [XGTACX_site7763] | 9.41 |
| ATCGCAAGATTAATATAAGGAGAAACGTTTATATAT [GTGCAC_negctrl_site267] | 9.66 |
